In article PMC5892938:
Some of the results follow. At the low end of the ranking the order means little.

Each sequence was assayed against GST-SBP-SLBP (stem-loop binding protein) (UniProt Q14493) (assay: targeted RNA Bind-n-Seq). Settings: RBNS binding buffer: 25 mM Tris pH 7.5, 150 mM KCl, 3 mM MgCl2, 0.1% Tween, 0.5 mg/mL BSA, 1 mM DTT; 27 nM protein, 750 pM RNA pool; temperature not stated; high values mean tight binding.
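Further: DESeq read counts versus GST-SBP nonspecific binding control pulldown.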

Sequence | binding signal (log2 fold change)
GGUCACGUCUCAAUCAACUCUUUUUCCAGGGAAAACCCUGGCUUUCUCAACAGCUCGCAGUCAAG | 0.0617
GGUCACGUCUCAAUCAACUCACUAGAGGGGGGGAAAACCCCUUUGCCCUCAAAUUCAACAGCUCGCAGUCAAG | -0.299
GGUCACGUCUCAAUCAACUCUAUCUCAGGAGUUUACUCCUGUUAACUCAACAGCUCGCAGUCAAG | -0.0213
GGUCACGUCUCAAUCAACUCAAUCCCAGGAGUUUCCUCCUGCUUACUCAACAGCUCGCAGUCAAG | -0.00384
GGUCACGUCUCAAUCAACUCAUUCCCCAGGGAAAACCCUGGCUAACUCAACAGCUCGCAGUCAAG | 0.097
GGUCACGUCUCAAUCAACUCAUCUCCAGGAGUUUUCUCCUGCAUAUUCAACAGCUCGCAGUCAAG | 0.095
GGUCACGUCUCAAUCAACUCAUCUCCCAGGGAAAGCCCUGGUAAUUUCAACAGCUCGCAGUCAAG | -0.147
GGUCACGUCUCAAUCAACUCUUCGUCCAGGGAAAACCCUGGUAAUCUCAACAGCUCGCAGUCAAG | -0.0145
GGUCACGUCUCAAUCAACUCAUCUUCCAGGGAAAACCCUGGUUAUCUCAACAGCUCGCAGUCAAG | -0.0285
GGUCACGUCUCAAUCAACUCAUUCCCAGGAGUUUACUCCUGCAUUCUCAACAGCUCGCAGUCAAG | -0.0336
GGUCACGUCUCAAUCAACUCCCCAGAGGGGGGGAAAACCCCUUUACCCUCCAAUUCAACAGCUCGCAGUCAAG | -0.296
GGUCACGUCUCAAUCAACUCAUUCUCCAGGGAAAUCCCUGGCUAAUUCAACAGCUCGCAGUCAAG | 0.264
GGUCACGUCUCAAUCAACUCUAUUUCCAGGGAAAUCCCUGGCUAACUCAACAGCUCGCAGUCAAG | 0.335
GGUCACGUCUCAAUCAACUCUUUUUCCAGGGAAAGCCCUGGCAUUUUCAACAGCUCGCAGUCAAG | -0.0811
GGUCACGUCUCAAUCAACUCUUUUUCCAGGGAAAGCCCUGGCAAUGUCAACAGCUCGCAGUCAAG | -0.083
GGUCACGUCUCAAUCAACUCAAUCUCAGGAGUUUACUCCUGUUAACUCAACAGCUCGCAGUCAAG | -0.0146
GGUCACGUCUCAAUCAACUCAAUCCCCAGGGAAAUCCCUGGCAAUUUCAACAGCUCGCAGUCAAG | -0.0196
GGUCACGUCUCAAUCAACUCAUCCCCCAGGGAAACCCCUGGUUAUUUCAACAGCUCGCAGUCAAG | 0.114
GGUCACGUCUCAAUCAACUCUUCUCCCAGGGAAAGCCCUGGUUUUCUCAACAGCUCGCAGUCAAG | -0.00976

Sequence | binding signal (log2 fold change)
GGUCACGUCUCAAUCAACUCUAUCCCAGGAGUUUUCUCCUGUAAUUUCAACAGCUCGCAGUCAAG | -0.238
GGUCACGUCUCAAUCAACUCUUCUUCAGGAGUUUCCUCCUGUUUUUUCAACAGCUCGCAGUCAAG | 0.0572
GGUCACGUCUCAAUCAACUCUAUUCCCAGGGAAACCCCUGGCUAAUUCAACAGCUCGCAGUCAAG | 0.00567
GGUCACGUCUCAAUCAACUCUUCCUCCAGGGAAACCCCUGGCAAUCUCAACAGCUCGCAGUCAAG | 0.0245
GGUCACGUCUCAAUCAACUCUUCUCCCAGGGAAAUCCCUGGCAAACUCAACAGCUCGCAGUCAAG | -0.137
GGUCACGUCUCAAUCAACUCCUUAGAGGGGGGGAAAACCCCUUUGCCCUCCAUAUCAACAGCUCGCAGUCAAG | -0.162
GGUCACGUCUCAAUCAACUCAACUCCAGGAGUUUGCUCCUGCAAUUUCAACAGCUCGCAGUCAAG | 0.0411
GGUCACGUCUCAAUCAACUCCUCAGAGGGGGGGAAAACCCCUUUGCCCUCAAAAUCAACAGCUCGCAGUCAAG | -0.374
GGUCACGUCUCAAUCAACUCCUCUGAGGGGGGGAAAACCCCUUUACCCUCUUUAUCAACAGCUCGCAGUCAAG | -0.114
GGUCACGUCUCAAUCAACUCCUAAGAGGGGGGGAAAACCCCUUUGCCCUCCACAUCAACAGCUCGCAGUCAAG | 0.161
GGUCACGUCUCAAUCAACUCAUCUUCAGGAGUUUUCUCCUGUAUUUUCAACAGCUCGCAGUCAAG | -0.239
GGUCACGUCUCAAUCAACUCUAUUCCAGGAGUUUACUCCUGCUAUUUCAACAGCUCGCAGUCAAG | -0.107
GGUCACGUCUCAAUCAACUCUUUUCCCAGGGAAAACCCUGGUAAUUUCAACAGCUCGCAGUCAAG | 0.159
GGUCACGUCUCAAUCAACUCAACUUCAGGAGUUUCCUCCUGUUUAUUCAACAGCUCGCAGUCAAG | 0.177
GGUCACGUCUCAAUCAACUCUUCCCCCAGGGAAACCCCUGGUAAAUUCAACAGCUCGCAGUCAAG | 0.122
GGUCACGUCUCAAUCAACUCAAGUCCCAGGGAAAGCCCUGGUAAAUUCAACAGCUCGCAGUCAAG | 0.121
GGUCACGUCUCAAUCAACUCAUCGUCCAGGGAAAACCCUGGUUAUCUCAACAGCUCGCAGUCAAG | -0.0927
GGUCACGUCUCAAUCAACUCUUCGUCAGGAGUUUUCUCCUGCAUUUUCAACAGCUCGCAGUCAAG | -0.21
